Laboratory results published in the supplement of paper PMC10037445.
Whole data set: some 2,900 compounds, median “NF-kB SEAP reporter activity, fold change vs agonist alone” near 0.99, cut for the highest 2% near 2.6. This is one part of the list.

Tests used:
[1] = system: RAW-Dual; assay: NF-kB SEAP reporter activity, fold change vs agonist alone; higher = enhanced NF-kB activity; details: library stock concentration (final ~1000-fold dilution): 10 mM
Summary of the method: (§1)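 Reporter activity is given as fold change relative to agonist-alone wells. To measure it, 50 nL of library stock was pin-tooled onto RAW-Dual macrophages (50,000 cells/well, DMEM, 384-well plates), a PRR agonist followed 1 h later, and cells stayed at 37 °C, 5% CO2. Twenty hours on, supernatant was assayed for IRF (QuantiLuc luminescence) and NF-κB (QuantiBlue, 620 nm absorbance), and wells under 70% of agonist-control IncuCyte confluency in both mask sets were marked cytotoxic.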

[2] = system: RAW-Dual; assay: NF-kB SEAP reporter activity, fold change vs agonist alone; cytotoxicity flag (confluency mask): not cytotoxic; higher = enhanced NF-kB activity
Summary of the method: as §1

[3] = system: RAW-Dual; assay: NF-kB SEAP reporter activity, fold change vs agonist alone; cytotoxicity flag (confluency mask): cytotoxic (confluency <70% of control); higher = enhanced NF-kB activity
Summary of the method: as §1

[4] = cytotoxicity flag (confluency mask): not cytotoxic, agonist: Imiquimod (TLR7) […]
[5] = cytotoxicity flag (confluency mask): not cytotoxic, agonist: MPLA (TLR4) […]
[6] = agonist: ODN 1826 (TLR9) 0.5 ug/mL
[7] = agonist: Pam2CSK4 (TLR2/6) 0.1 ug/mL
[8] = agonist: Pam3CSK4 (TLR2/1) 0.1 ug/mL

Which “NF-kB SEAP reporter activity” value [1, 4] does the source give for `CN(C)C(=O)c1cc2cnc(Nc3ccc(N4CCNCC4)cn3)nc2n1C1CCCC1` here?
The value was 1.11.

What about the “NF-kB SEAP reporter activity” value [1, 5] of the same compound?
Its value is 1.11.

With `CN(C)C(=O)c1cc2cnc(Nc3ccc(N4CCNCC4)cn3)nc2n1C1CCCC1` (library stock concentration (final ~1000-fold dilution): 10 mM) as the compound, how does the “NF-kB SEAP reporter activity” value ([2]; agonist: LPS (TLR4) 0.1 ug/mL) read?
The value was 0.908.

And the “NF-kB SEAP reporter activity” value [2, 6]?
The value was 0.825.

And the “NF-kB SEAP reporter activity” value [2, 7]?
The value was 1.24.

What about the “NF-kB SEAP reporter activity” value [2, 8] of the same compound?
The value was 1.75.

How did the “NF-kB SEAP reporter activity” value ([2]; agonist: LPS (TLR4) 0.1 ug/mL) turn out when `C=CC(C)(O)CCC=C(C)C` (stereo not given) (library stock concentration (final ~1000-fold dilution): 10 mM) was run?
The value was 1.16.

And the “NF-kB SEAP reporter activity” value [2, 6]?
Its value is 0.952.

And the “NF-kB SEAP reporter activity” value [2, 7]?
The value was 1.14.

And the “NF-kB SEAP reporter activity” value [2, 8]?
Its value is 0.916.

Which “NF-kB SEAP reporter activity” value [1, 5] does the source give for `C=CC(C)(O)CCC=C(C)C` (stereo not given) here?
Its value is 1.14.

For `CC(C)CC(NC(=O)CNC(=O)c1cc(Cl)ccc1Cl)B1OC(=O)CC(CC(=O)O)(C(=O)O)O1` (stereo not given) (library stock concentration (final ~1000-fold dilution): 10 mM), which “NF-kB SEAP reporter activity” value ([2]; agonist: LPS (TLR4) 0.1 ug/mL) is on record?
The value was 0.585.

And the “NF-kB SEAP reporter activity” value [2, 6]?
Its value is 0.938.

And the “NF-kB SEAP reporter activity” value [2, 7]?
Its value is 0.905.

And the “NF-kB SEAP reporter activity” value [2, 8]?
The value was 0.999.

For `CC(C)CC(NC(=O)CNC(=O)c1cc(Cl)ccc1Cl)B1OC(=O)CC(CC(=O)O)(C(=O)O)O1` (stereo not given), which “NF-kB SEAP reporter activity” value [1, 4] is on record?
The value was 0.956.

And the “NF-kB SEAP reporter activity” value [1, 5]?
Its value is 0.913.

Which results are given for `CN1CCN(c2ccc(Nc3cc(-c4cccc(-n5ccc6cc(C7CC7)cc(F)c6c5=O)c4CO)cn(C)c3=O)nc2)CC1` (library stock concentration (final ~1000-fold dilution): 10 mM)?
NF-kB SEAP reporter activity ([2]; agonist: LPS (TLR4) 0.1 ug/mL): 2.24; NF-kB SEAP reporter activity [2, 6]: 0.361; NF-kB SEAP reporter activity [2, 7]: 0.97; NF-kB SEAP reporter activity [2, 8]: 1.13

What does the source list for `CN1CCN(c2ccc(Nc3cc(-c4cccc(-n5ccc6cc(C7CC7)cc(F)c6c5=O)c4CO)cn(C)c3=O)nc2)CC1`?
NF-kB SEAP reporter activity [1, 4]: 0.817; NF-kB SEAP reporter activity [1, 5]: 0.979

Which results are given for `Cc1cc(Nc2cc(CN3CCOCC3)c3nc(C)c(Cc4ccc(Cl)cc4F)n3n2)[nH]n1`?
NF-kB SEAP reporter activity [1, 4]: 0.954; NF-kB SEAP reporter activity [1, 5]: 0.944

Which “NF-kB SEAP reporter activity” value ([2]; agonist: LPS (TLR4) 0.1 ug/mL) does the source give for `Cc1cc(Nc2cc(CN3CCOCC3)c3nc(C)c(Cc4ccc(Cl)cc4F)n3n2)[nH]n1` (library stock concentration (final ~1000-fold dilution): 10 mM) here?
The value was 1.17.

And the “NF-kB SEAP reporter activity” value [2, 6]?
Its value is 0.972.

And the “NF-kB SEAP reporter activity” value [2, 7]?
Its value is 0.725.

What about the “NF-kB SEAP reporter activity” value [2, 8] of the same compound?
The value was 0.99.

For `CN(CC1COCCO1)S(=O)(=O)Nc1ccc2ccc3ncc(-c4cnn(C)c4)cc3c(=O)c2c1` (stereo not given), which “NF-kB SEAP reporter activity” value [1, 4] is on record?
The value was 1.63.

And the “NF-kB SEAP reporter activity” value [1, 5]?
Its value is 1.88.

What does the source list for `CN(CC1COCCO1)S(=O)(=O)Nc1ccc2ccc3ncc(-c4cnn(C)c4)cc3c(=O)c2c1` (stereo not given) (library stock concentration (final ~1000-fold dilution): 10 mM)?
NF-kB SEAP reporter activity ([2]; agonist: LPS (TLR4) 0.1 ug/mL): 2.25; NF-kB SEAP reporter activity [2, 6]: 1.06; NF-kB SEAP reporter activity [2, 7]: 0.543; NF-kB SEAP reporter activity [2, 8]: 0.611

With `Cc1c(C)c2c(c(C)c1O)CCC(C)(CCCC(C)CCCC(C)CCCC(C)C)O2` (stereo not given) (library stock concentration (final ~1000-fold dilution): 10 mM) as the compound, how does the “NF-kB SEAP reporter activity” value ([2]; agonist: LPS (TLR4) 0.1 ug/mL) read?
Its value is 1.03.

And the “NF-kB SEAP reporter activity” value [2, 6]?
Its value is 0.942.

What about the “NF-kB SEAP reporter activity” value [2, 7] of the same compound?
The value was 1.13.

And the “NF-kB SEAP reporter activity” value [2, 8]?
Its value is 0.951.

`Cc1c(C)c2c(c(C)c1O)CCC(C)(CCCC(C)CCCC(C)CCCC(C)C)O2` (stereo not given) was tested. Which “NF-kB SEAP reporter activity” value [1, 5] did it give?
Its value is 1.08.

How did the “NF-kB SEAP reporter activity” value [1, 4] turn out when `CCN1CCN(c2ccc(Nc3cc(N(C)C(=O)Nc4c(Cl)c(OC)cc(OC)c4Cl)ncn3)cc2)CC1` was run?
The value was 0.791.

And the “NF-kB SEAP reporter activity” value [1, 5]?
Its value is 0.913.

What does the source list for `CCN1CCN(c2ccc(Nc3cc(N(C)C(=O)Nc4c(Cl)c(OC)cc(OC)c4Cl)ncn3)cc2)CC1` (library stock concentration (final ~1000-fold dilution): 10 mM)?
NF-kB SEAP reporter activity ([2]; agonist: LPS (TLR4) 0.1 ug/mL): 1.28; NF-kB SEAP reporter activity [2, 6]: 0.925; NF-kB SEAP reporter activity [2, 7]: 1.35; NF-kB SEAP reporter activity [2, 8]: 1.09

What does the source list for `Oc1cc(O)cc(/C=C/c2ccc(O)c(O)c2)c1` (library stock concentration (final ~1000-fold dilution): 10 mM)?
NF-kB SEAP reporter activity ([2]; agonist: LPS (TLR4) 0.1 ug/mL): 1.04; NF-kB SEAP reporter activity [2, 6]: 0.848; NF-kB SEAP reporter activity [2, 7]: 1.07; NF-kB SEAP reporter activity [2, 8]: 0.785

Which “NF-kB SEAP reporter activity” value [1, 4] does the source give for `Oc1cc(O)cc(/C=C/c2ccc(O)c(O)c2)c1` here?
The value was 1.67.

What about the “NF-kB SEAP reporter activity” value [1, 5] of the same compound?
Its value is 1.3.

Which results are given for `Nc1nnc(-c2cccc(Cl)c2Cl)c(N)n1`?
NF-kB SEAP reporter activity [1, 4]: 1.07; NF-kB SEAP reporter activity [1, 5]: 1.06

Which results are given for `Nc1nnc(-c2cccc(Cl)c2Cl)c(N)n1` (library stock concentration (final ~1000-fold dilution): 10 mM)?
NF-kB SEAP reporter activity ([2]; agonist: LPS (TLR4) 0.1 ug/mL): 1.19; NF-kB SEAP reporter activity [2, 6]: 0.949; NF-kB SEAP reporter activity [2, 7]: 1.09; NF-kB SEAP reporter activity [2, 8]: 1.14

For `NCCNc1ccc(NCCN)c2c1C(=O)c1ccncc1C2=O.O=C(O)/C=C\C(=O)O.O=C(O)/C=C\C(=O)O` (library stock concentration (final ~1000-fold dilution): 10 mM), which “NF-kB SEAP reporter activity” value ([3]; agonist: LPS (TLR4) 0.1 ug/mL) is on record?
The value was 0.338.

And the “NF-kB SEAP reporter activity” value [3, 6]?
The value was 0.395.

And the “NF-kB SEAP reporter activity” value [3, 7]?
The value was 0.161.

And the “NF-kB SEAP reporter activity” value [3, 8]?
Its value is 0.274.

Which “NF-kB SEAP reporter activity” value ([1]; cytotoxicity flag (confluency mask): cytotoxic (confluency <70% of control), agonist: MPLA (TLR4) […]) does the source give for `NCCNc1ccc(NCCN)c2c1C(=O)c1ccncc1C2=O.O=C(O)/C=C\C(=O)O.O=C(O)/C=C\C(=O)O` here?
The value was 0.351.

Which results are given for `CN1CCCC(n2nc(Cc3ccc(Cl)cc3)c3ccccc3c2=O)CC1.Cl` (stereo not given)?
NF-kB SEAP reporter activity [1, 4]: 0.948; NF-kB SEAP reporter activity [1, 5]: 0.941

For `CN1CCCC(n2nc(Cc3ccc(Cl)cc3)c3ccccc3c2=O)CC1.Cl` (stereo not given) (library stock concentration (final ~1000-fold dilution): 10 mM), which “NF-kB SEAP reporter activity” value ([2]; agonist: LPS (TLR4) 0.1 ug/mL) is on record?
Its value is 1.01.

What about the “NF-kB SEAP reporter activity” value [2, 6] of the same compound?
Its value is 0.935.

And the “NF-kB SEAP reporter activity” value [2, 7]?
Its value is 0.774.

What about the “NF-kB SEAP reporter activity” value [2, 8] of the same compound?
Its value is 0.795.

Which results are given for `CN(C)CCCN1c2ccccc2Sc2ccccc21.Cl` (library stock concentration (final ~1000-fold dilution): 10 mM)?
NF-kB SEAP reporter activity ([2]; agonist: LPS (TLR4) 0.1 ug/mL): 1.2; NF-kB SEAP reporter activity [2, 6]: 0.824; NF-kB SEAP reporter activity [2, 7]: 0.963; NF-kB SEAP reporter activity [2, 8]: 0.703

With `CN(C)CCCN1c2ccccc2Sc2ccccc21.Cl` as the compound, how does the “NF-kB SEAP reporter activity” value [1, 5] read?
Its value is 1.68.

For `CNC(=O)C(Cc1ccccc1)NC(=O)C(CC(C)C)C(CSc1cccs1)C(=O)NO` (stereo not given), which “NF-kB SEAP reporter activity” value [1, 4] is on record?
Its value is 1.09.

What about the “NF-kB SEAP reporter activity” value [1, 5] of the same compound?
Its value is 1.25.

With `CNC(=O)C(Cc1ccccc1)NC(=O)C(CC(C)C)C(CSc1cccs1)C(=O)NO` (stereo not given) (library stock concentration (final ~1000-fold dilution): 10 mM) as the compound, how does the “NF-kB SEAP reporter activity” value ([2]; agonist: LPS (TLR4) 0.1 ug/mL) read?
Its value is 1.21.

And the “NF-kB SEAP reporter activity” value [2, 6]?
Its value is 0.849.

What about the “NF-kB SEAP reporter activity” value [2, 7] of the same compound?
The value was 0.949.

What about the “NF-kB SEAP reporter activity” value [2, 8] of the same compound?
The value was 1.28.
